{"source": "the supplement of paper PMC11125491", "parents": {"B1": {"name": "UniProt A0EPZ9; numbered along this chain (parent)", "chain": "MDWQKSLTLIVALTLSRGIGLKNDLPWKLKSDMMFFSRVTSGLLVTRSTGQMNVVLMGRKTWESLPAHSRPLKNRINVVISRQEVLDLGGGAYHARSLDDALALLSQIYDSTSKIQLNRVFVIGGGELCKAAMEHSRLNRIIATVIHNEVDCDVFFPIDFRSSQSCLPWRKQDHSVLEAWVGSKVPQGKINENGFIYEFEMWIRDI"}}, "variants_of": "B1", "test": "selection coefficient against synonymous wild-type codons (log2 per generation); higher = faster growth than wild type", "settings": "with Saccharomyces cerevisiae carrying the variant on a plasmid", "method": "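Pooled growth of yeast carrying single-residue variants of P. jirovecii dihydrofolate reductase (own DFR1 gene intact), two passages at 30 °C, three cultures, sequenced before and after. Codons with under 15 starting reads are left out; codons of one change are averaged.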", "note": "± gives the standard deviation of the averaged measurements. Growth of baker's yeast expressing single-residue variants of Pneumocystis jirovecii dihydrofolate reductase in 8.8 or 44 µM methotrexate (about 75% and 90% inhibition of the wild type). Selection coefficient per generation; 0 = like wild type, above 0 = less sensitive, below 0 = more sensitive or loss of function. No active / inactive call per row; the paper calls resistant above 0.220 (8.8 µM) or 0.243 (44 µM) together with a significance test. At 44 µM about 15% of codons end with one read or none, so the lowest values are floors (replicate rank correlation 0.74; 0.94 at 8.8 µM).", "data": [{"variant": "MDWQKSLTLIVALTLSRGIGLKNDLPWKLKSDMMFFSRVTSGLLVTRSTGQMNVVLMGRKTWESLPAHSRPLKNRINVVISRQEVLDLGGGAYHARSLDDALALLSQIYDSTSKIQLNRVFVIGGGELCKAAMEHSRLNRIIATVIHNEVDCDVFFPIDFRSSQSCLPWRKQDHSVLHAWVGSKVPQGKINENGFIYEFEMWIRDI", "note": "[E178H]", "values": [{"measurement": "selection coefficient against synonymous wild-type codons (log2)", "setting": "methotrexate 8.8 µM", "result": "-0.24 ± 0.034"}, {"measurement": "selection coefficient against synonymous wild-type codons (log2)", "setting": "methotrexate 44 µM", "result": "-0.259 ± 0.12"}]}, {"variant": "MDWQKSLTLIVALTLSRGIGLKNDLPWKLKSDMMFFSRVTSGLLVTRSTGQMNVVLMGRKTWESLPAHSRPLKNRINVVISRQEVLDLGGGAYHARSLDDALALLSQIYDSTSKIQLNRVFVIGGGELCKAAMEHSRLNRIIATVIHNEVDCDVFFPIDFRSSQSCLPWRKQDHSVLMAWVGSKVPQGKINENGFIYEFEMWIRDI", "note": "[E178M]", "values": [{"measurement": "selection coefficient against synonymous wild-type codons (log2)", "setting": "methotrexate 8.8 µM", "result": "-0.348 ± 0.091"}, {"measurement": "selection coefficient against synonymous wild-type codons (log2)", "setting": "methotrexate 44 µM", "result": "-0.356 ± 0.051"}]}, {"variant": "MDWQKSLTLIVALTLSRGIGLKNDLPWKLKSDMMFFSRVTSGLLVTRSTGQMNVVLMGRKTWESLPAHSRPLKNRINVVISRQEVLDLGGGAYHARSLDDALALLSQIYDSTSKIQLNRVFVIGGGELCKAAMEHSRLNRIIATVIHNEVDCDVFFPIDFRSSQSCLPWRKQDHSVLAAWVGSKVPQGKINENGFIYEFEMWIRDI", "note": "[E178A]", "values": [{"measurement": "selection coefficient against synonymous wild-type codons (log2)", "setting": "methotrexate 8.8 µM", "result": "-0.118 ± 0.094"}, {"measurement": "selection coefficient against synonymous wild-type codons (log2)", "setting": "methotrexate 44 µM", "result": "-0.208 ± 0.096"}]}, {"variant": "MDWQKSLTLIVALTLSRGIGLKNDLPWKLKSDMMFFSRVTSGLLVTRSTGQMNVVLMGRKTWESLPAHSRPLKNRINVVISRQEVLDLGGGAYHARSLDDALALLSQIYDSTSKIQLNRVFVIGGGELCKAAMEHSRLNRIIATVIHNEVDCDVFFPIDFRSSQSCLPWRKQDHSVLCAWVGSKVPQGKINENGFIYEFEMWIRDI", "note": "[E178C]", "values": [{"measurement": "selection coefficient against synonymous wild-type codons (log2)", "setting": "methotrexate 8.8 µM", "result": "-0.281 ± 0.019"}, {"measurement": "selection coefficient against synonymous wild-type codons (log2)", "setting": "methotrexate 44 µM", "result": "-0.264 ± 0.081"}]}, {"variant": "MDWQKSLTLIVALTLSRGIGLKNDLPWKLKSDMMFFSRVTSGLLVTRSTGQMNVVLMGRKTWESLPAHSRPLKNRINVVISRQEVLDLGGGAYHARSLDDALALLSQIYDSTSKIQLNRVFVIGGGELCKAAMEHSRLNRIIATVIHNEVDCDVFFPIDFRSSQSCLPWRKQDHSVLKAWVGSKVPQGKINENGFIYEFEMWIRDI", "note": "[E178K]", "values": [{"measurement": "selection coefficient against synonymous wild-type codons (log2)", "setting": "methotrexate 8.8 µM", "result": "-0.128 ± 0.06"}, {"measurement": "selection coefficient against synonymous wild-type codons (log2)", "setting": "methotrexate 44 µM", "result": "-0.209 ± 0.078"}]}, {"variant": "MDWQKSLTLIVALTLSRGIGLKNDLPWKLKSDMMFFSRVTSGLLVTRSTGQMNVVLMGRKTWESLPAHSRPLKNRINVVISRQEVLDLGGGAYHARSLDDALALLSQIYDSTSKIQLNRVFVIGGGELCKAAMEHSRLNRIIATVIHNEVDCDVFFPIDFRSSQSCLPWRKQDHSVLLAWVGSKVPQGKINENGFIYEFEMWIRDI", "note": "[E178L]", "values": [{"measurement": "selection coefficient against synonymous wild-type codons (log2)", "setting": "methotrexate 8.8 µM", "result": "-0.433 ± 0.054"}, {"measurement": "selection coefficient against synonymous wild-type codons (log2)", "setting": "methotrexate 44 µM", "result": "-0.414 ± 0.1"}]}, {"variant": "MDWQKSLTLIVALTLSRGIGLKNDLPWKLKSDMMFFSRVTSGLLVTRSTGQMNVVLMGRKTWESLPAHSRPLKNRINVVISRQEVLDLGGGAYHARSLDDALALLSQIYDSTSKIQLNRVFVIGGGELCKAAMEHSRLNRIIATVIHNEVDCDVFFPIDFRSSQSCLPWRKQDHSVLFAWVGSKVPQGKINENGFIYEFEMWIRDI", "note": "[E178F]", "values": [{"measurement": "selection coefficient against synonymous wild-type codons (log2)", "setting": "methotrexate 8.8 µM", "result": "-0.637 ± 0.15"}, {"measurement": "selection coefficient against synonymous wild-type codons (log2)", "setting": "methotrexate 44 µM", "result": "-0.375 ± 0.066"}]}, {"variant": "MDWQKSLTLIVALTLSRGIGLKNDLPWKLKSDMMFFSRVTSGLLVTRSTGQMNVVLMGRKTWESLPAHSRPLKNRINVVISRQEVLDLGGGAYHARSLDDALALLSQIYDSTSKIQLNRVFVIGGGELCKAAMEHSRLNRIIATVIHNEVDCDVFFPIDFRSSQSCLPWRKQDHSVLIAWVGSKVPQGKINENGFIYEFEMWIRDI", "note": "[E178I]", "values": [{"measurement": "selection coefficient against synonymous wild-type codons (log2)", "setting": "methotrexate 8.8 µM", "result": "-0.44 ± 0.12"}, {"measurement": "selection coefficient against synonymous wild-type codons (log2)", "setting": "methotrexate 44 µM", "result": "-0.383 ± 0.032"}]}, {"variant": "MDWQKSLTLIVALTLSRGIGLKNDLPWKLKSDMMFFSRVTSGLLVTRSTGQMNVVLMGRKTWESLPAHSRPLKNRINVVISRQEVLDLGGGAYHARSLDDALALLSQIYDSTSKIQLNRVFVIGGGELCKAAMEHSRLNRIIATVIHNEVDCDVFFPIDFRSSQSCLPWRKQDHSVLDAWVGSKVPQGKINENGFIYEFEMWIRDI", "note": "[E178D]", "values": [{"measurement": "selection coefficient against synonymous wild-type codons (log2)", "setting": "methotrexate 8.8 µM", "result": "-0.0545 ± 0.049"}, {"measurement": "selection coefficient against synonymous wild-type codons (log2)", "setting": "methotrexate 44 µM", "result": "-0.0427 ± 0.03"}]}, {"variant": "MDWQKSLTLIVALTLSRGIGLKNDLPWKLKSDMMFFSRVTSGLLVTRSTGQMNVVLMGRKTWESLPAHSRPLKNRINVVISRQEVLDLGGGAYHARSLDDALALLSQIYDSTSKIQLNRVFVIGGGELCKAAMEHSRLNRIIATVIHNEVDCDVFFPIDFRSSQSCLPWRKQDHSVLGAWVGSKVPQGKINENGFIYEFEMWIRDI", "note": "[E178G]", "values": [{"measurement": "selection coefficient against synonymous wild-type codons (log2)", "setting": "methotrexate 8.8 µM", "result": "-0.199 ± 0.064"}, {"measurement": "selection coefficient against synonymous wild-type codons (log2)", "setting": "methotrexate 44 µM", "result": "-0.324 ± 0.095"}]}, {"variant": "MDWQKSLTLIVALTLSRGIGLKNDLPWKLKSDMMFFSRVTSGLLVTRSTGQMNVVLMGRKTWESLPAHSRPLKNRINVVISRQEVLDLGGGAYHARSLDDALALLSQIYDSTSKIQLNRVFVIGGGELCKAAMEHSRLNRIIATVIHNEVDCDVFFPIDFRSSQSCLPWRKQDHSVVEAWVGSKVPQGKINENGFIYEFEMWIRDI", "note": "[L177V]", "values": [{"measurement": "selection coefficient against synonymous wild-type codons (log2)", "setting": "methotrexate 8.8 µM", "result": "0.112 ± 0.038"}, {"measurement": "selection coefficient against synonymous wild-type codons (log2)", "setting": "methotrexate 44 µM", "result": "-0.0201 ± 0.12"}]}, {"variant": "MDWQKSLTLIVALTLSRGIGLKNDLPWKLKSDMMFFSRVTSGLLVTRSTGQMNVVLMGRKTWESLPAHSRPLKNRINVVISRQEVLDLGGGAYHARSLDDALALLSQIYDSTSKIQLNRVFVIGGGELCKAAMEHSRLNRIIATVIHNEVDCDVFFPIDFRSSQSCLPWRKQDHSVYEAWVGSKVPQGKINENGFIYEFEMWIRDI", "note": "[L177Y]", "values": [{"measurement": "selection coefficient against synonymous wild-type codons (log2)", "setting": "methotrexate 8.8 µM", "result": "0.0153 ± 0.035"}, {"measurement": "selection coefficient against synonymous wild-type codons (log2)", "setting": "methotrexate 44 µM", "result": "0.0395 ± 0.023"}]}, {"variant": "MDWQKSLTLIVALTLSRGIGLKNDLPWKLKSDMMFFSRVTSGLLVTRSTGQMNVVLMGRKTWESLPAHSRPLKNRINVVISRQEVLDLGGGAYHARSLDDALALLSQIYDSTSKIQLNRVFVIGGGELCKAAMEHSRLNRIIATVIHNEVDCDVFFPIDFRSSQSCLPWRKQDHSVSEAWVGSKVPQGKINENGFIYEFEMWIRDI", "note": "[L177S]", "values": [{"measurement": "selection coefficient against synonymous wild-type codons (log2)", "setting": "methotrexate 8.8 µM", "result": "-0.0186 ± 0.042"}, {"measurement": "selection coefficient against synonymous wild-type codons (log2)", "setting": "methotrexate 44 µM", "result": "-0.0168 ± 0.061"}]}, {"variant": "MDWQKSLTLIVALTLSRGIGLKNDLPWKLKSDMMFFSRVTSGLLVTRSTGQMNVVLMGRKTWESLPAHSRPLKNRINVVISRQEVLDLGGGAYHARSLDDALALLSQIYDSTSKIQLNRVFVIGGGELCKAAMEHSRLNRIIATVIHNEVDCDVFFPIDFRSSQSCLPWRKQDHSVWEAWVGSKVPQGKINENGFIYEFEMWIRDI", "note": "[L177W]", "values": [{"measurement": "selection coefficient against synonymous wild-type codons (log2)", "setting": "methotrexate 8.8 µM", "result": "-0.338 ± 0.088"}, {"measurement": "selection coefficient against synonymous wild-type codons (log2)", "setting": "methotrexate 44 µM", "result": "-0.324 ± 0.15"}]}, {"variant": "MDWQKSLTLIVALTLSRGIGLKNDLPWKLKSDMMFFSRVTSGLLVTRSTGQMNVVLMGRKTWESLPAHSRPLKNRINVVISRQEVLDLGGGAYHARSLDDALALLSQIYDSTSKIQLNRVFVIGGGELCKAAMEHSRLNRIIATVIHNEVDCDVFFPIDFRSSQSCLPWRKQDHSVTEAWVGSKVPQGKINENGFIYEFEMWIRDI", "note": "[L177T]", "values": [{"measurement": "selection coefficient against synonymous wild-type codons (log2)", "setting": "methotrexate 8.8 µM", "result": "0.0185 ± 0.05"}, {"measurement": "selection coefficient against synonymous wild-type codons (log2)", "setting": "methotrexate 44 µM", "result": "-0.0877 ± 0.087"}]}]}
